Measured values from the supplement of paper PMC12217912.
This is one part of the list. Sequences were assembled here from the parent chain. Inactive controls read about 0.05.

B1: TEV protease; numbered along this chain (parent)
chain: MGESLFKGPRDYNPISSSICHLTNESDGHTTSLYGIGFGPFIITNKHLFRRNNGTLVVQSLHGVFKVKDTTTLQQHLVDGRDMIIIRMPKDFPPFPQKLKFREPQREERICLVTTNFQTKSMSSMVSDTSCTFPSGDGIFWKHWIQTKDGQCGSPLVSTRDGFIVGIHSASNFTNTNNYFTSVPKNFMELLTNQEAQQWVSGWRLNADSVLWGGHKVFMVKPEEPFQPVKEATQL

Variants of: B1
Assay: raw area under fraction-flipped curve 0-4 h after induction (AUC4h, not background-subtracted), DNA-recorder readout of cleavage of the substrate (dimensionless); higher = more cleavage of the substrate by the protease variant
Conditions: temperature: 34 °C; time window: 0-4 h after rhamnose induction
Procedure: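 In vivo DNA recorder in E. coli TOP10(DE3) ΔrhaA at 34 °C. Each TEVp single-site mutant (parent TEVp 0) is paired with a single-site variant of the 7-mer TEVs (canonical ENLYFQ|S). The substrate sits between flexible linkers in a Bxb1-sfGFP-TEVs-SsrA fusion, so cleavage stabilises Bxb1 and speeds flipping of a recombination array, read by NGS. The value is the raw area under the fraction-flipped curve over 0-4 h after rhamnose induction (AUC4h), with ≥20 reads per time point. It is not background-subtracted; inactive controls average about 0.047.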
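Also: Bxb1 expression induced with 0.2% (w/v) L-rhamnose at OD600 near 0.5, cultures sampled hourly, flipped fraction per protease–substrate barcode pair counted by paired-end Illumina sequencing.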

Variant	area with substrate EALYFQS	area with substrate ECLYFQS	area with substrate EDLYFQS	area with substrate EELYFQS	area with substrate EFLYFQS	area with substrate EGLYFQS	area with substrate EHLYFQS	area with substrate EILYFQS	area with substrate EKLYFQS	area with substrate ELLYFQS	area with substrate EMLYFQS	area with substrate EPLYFQS	area with substrate EQLYFQS	area with substrate ERLYFQS	area with substrate ESLYFQS	area with substrate ETLYFQS	area with substrate EVLYFQS	area with substrate EWLYFQS	area with substrate EYLYFQS
G150E	0.0578	0.0537	0.062	0.0649	0.0682	0.0489	0.0614	0.0566	0.064	0.0619	0.0503	0.0679	0.0545	0.0503	0.0544	0.0602	0.0623	0.0648	–
G150W	0.053	0.0546	0.0666	0.0665	0.0618	0.0453	0.0565	0.0554	0.0575	0.0494	0.0652	0.0652	0.0571	0.0703	0.0688	0.0451	0.0653	0.054	0.0685
C152A	0.0645	0.0739	0.0868	0.0922	0.0929	0.0742	0.0968	0.0717	0.0814	–	–	–	0.0909	0.0854	0.0684	–	0.0755	–	–
C152G	0.0592	0.036	0.0573	0.0627	0.0509	0.0543	0.0678	–	0.0536	0.0608	0.0562	0.0577	0.0633	–	0.055	0.0718	0.0542	0.0553	–
C152K	0.0591	0.0585	–	0.0534	–	–	–	0.0771	–	–	–	0.0544	0.0545	0.0604	0.0583	0.0837	–	–	0.0621
C152L	0.0491	0.0548	0.071	0.0754	–	–	0.055	0.0509	0.0824	–	0.0698	–	0.0748	0.0487	0.0582	0.0634	0.0616	0.0652	–
C152V	0.0683	0.0437	–	0.0614	–	0.056	0.0612	0.0801	0.0543	0.0605	0.0529	0.0676	0.0509	0.078	0.0679	0.0531	0.0605	0.063	0.0619
V157F	0.127	0.0706	0.102	0.0856	0.115	0.11	0.0828	0.0806	0.12	0.0727	0.0737	0.115	0.186	0.0875	0.097	0.0599	–	–	0.0558
R160D	0.123	0.116	0.145	–	–	0.161	0.107	0.092	0.121	0.0915	0.113	–	0.139	0.111	0.118	–	0.123	0.0956	0.116
R160I	0.114	0.0925	0.117	0.131	0.107	0.0812	–	0.0802	0.104	–	0.112	–	0.101	0.0903	0.102	0.108	0.0892	0.0962	–
R160N	0.141	0.116	–	–	–	0.127	–	–	0.125	0.13	0.131	–	0.154	–	0.101	0.105	–	0.111	–
R160V	0.103	0.106	0.145	0.104	0.115	–	0.123	0.0896	0.13	0.11	0.111	0.127	0.104	0.0894	0.114	0.125	0.0954	0.106	–
D161V	0.032	0.0521	0.0602	0.0522	0.0544	0.0629	–	0.0366	0.0582	0.0585	0.0415	–	0.0525	0.0596	0.0524	0.0629	0.0579	0.0514	0.0545
G162C	0.101	0.0976	0.176	0.114	0.0941	–	0.099	0.0827	–	0.0676	0.132	–	0.0972	0.101	0.104	0.0917	0.09	0.0822	0.104
I164A	0.0595	0.0688	0.0519	0.0704	0.0435	–	0.0652	0.056	0.0262	0.0549	0.0787	0.0937	0.0624	0.0602	0.0443	–	0.0555	0.0503	0.0728
V165E	0.0493	0.058	0.0582	0.0352	0.0271	0.0451	0.0497	–	0.0446	0.0506	0.054	0.0521	0.0549	0.055	0.0655	–	0.0547	0.0551	–
I167K	0.0727	0.0552	0.0503	0.0438	0.0657	0.0497	0.0568	0.0364	0.0485	–	0.0492	0.0534	0.0552	0.0559	0.0507	0.0512	0.0455	0.0631	0.0476
H168D	0.0585	0.0576	0.0614	0.0528	0.0649	–	0.0594	0.0532	0.0607	–	0.0511	0.0592	0.0507	0.0589	0.0578	0.0462	0.0609	0.0544	0.0578
H168E	0.0663	0.0611	–	0.0582	–	0.0514	–	0.0601	0.0679	0.0854	–	0.0552	0.0577	–	0.0477	0.0597	0.0559	0.0933	–
H168G	0.0543	0.0585	0.0647	0.0556	–	–	–	–	–	–	0.0781	–	0.0585	–	0.0666	0.04	–	–	0.0766
H168I	0.055	0.0572	0.0653	0.0553	–	0.0687	0.0741	0.0565	–	0.0582	0.0562	0.0919	0.0583	0.0617	0.0601	0.0607	0.0592	0.0475	0.0569
H168Q	0.0675	0.0583	0.0692	0.0916	0.0687	–	0.0944	–	0.0538	0.0607	–	0.0765	0.0701	0.094	0.0674	–	–	0.0556	0.0354
H168Y	0.0529	0.0607	–	0.0601	0.0751	0.0829	0.0378	0.0586	0.0537	0.057	–	0.0642	–	0.0462	0.0632	0.0562	0.0481	–	0.077
